Data as given in PubChem BioAssay AID1240 (Sanford-Burnham Center for Chemical Genomics, 2008).
The whole screen tested about 50,000 compounds, of which about 800 (1.6%) showed an effect of 50% or more. This is one part of the list.

What follows are compounds tested against Bcl-2-like protein 10 (Homo sapiens) (UniProt Q9HD36) (assay: Phenotype converters, Bcl-B/TR3 peptide binding displacement, primary biochemical FP (AID 1240;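 note: 0% = Bcl-B with tracer peptide and DMSO and 100% = tracer peptide lacking Bcl-B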)). Conditions: GST-Bcl-B / FITC-TR3 peptide fluorescence polarization; stronger effect = higher value; compound at 3.75 mg/L.
Sequence of UniProt Q9HD36 (Q9HD36 whole entry, looked up): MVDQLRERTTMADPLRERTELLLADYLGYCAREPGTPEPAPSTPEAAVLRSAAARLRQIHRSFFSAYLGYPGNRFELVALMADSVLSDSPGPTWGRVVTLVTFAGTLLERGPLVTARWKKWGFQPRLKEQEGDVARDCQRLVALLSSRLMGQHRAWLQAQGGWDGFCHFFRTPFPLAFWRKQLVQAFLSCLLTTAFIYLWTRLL
`O=C(Cc1ccccc1)Nc1ncc(Cc2ccc(Cl)c(Cl)c2)s1` gave a displacement of 0.5%. With `O=S(=O)(N/N=C/c1cccs1)c1ccc(Cl)cc1` the displacement was 2.5%. Work on `COc1ccc(-c2nnc(-c3ccc(Br)o3)o2)cc1` yielded a displacement of -12.4%. In the case of `Cc1ccc(OCC(=O)Nc2ccc(F)cc2F)c(C)c1`, the displacement is reported as -4.4%. `O=C1NC(=S)N(c2ccccc2)C(=O)/C1=C/c1ccc(O)c(Cl)c1` showed a displacement of 1.2%. Work on `CCOc1c(Br)cc(/C=C2/C(=O)NN(c3ccccc3)C2=O)cc1OC` yielded a displacement of 14.7%. Compound `C=C(C)COc1ccc2oc(C)c(C(=O)OCC)c2c1` has a displacement of 8.5%. `N#CC1=C(N)Oc2cc(N)ccc2C1c1ccc(Br)cc1` (stereo not given) gave a displacement of -7.3%. In the case of `CCOC(=O)c1ccc(NS(=O)(=O)c2cc(-c3nnnn3C)ccc2OC)cc1`, the displacement is reported as 5.9%. `O=C(c1cccc(Nc2nc(-c3ccccc3)c3cc(Cl)ccc3n2)c1)N1CCOCC1` gave a displacement of 4.1%. `CC(=O)Nc1ccccc1NC(=O)C(c1ccccc1)c1ccccc1` was tested, and the displacement was -2.5%. With `O=C(Nc1cccc2nsnc12)C(c1ccccc1)c1ccccc1` the displacement was 2.8%. Work on `COc1cc(/C=C2\C(=O)NC(=S)N(c3ccc(F)cc3)C2=O)ccc1O` yielded a displacement of -0.2%. `COc1cc(C(=O)N/N=C/c2cc(Cl)ccc2O)ccc1O` showed a displacement of 6.7%. Compound `Cc1ccc(C(C)NC(=O)c2ccccc2)cc1` (stereo not given) has a displacement of 9.1%. For `Cc1nnc(N/N=C/c2c(O)ccc3ccccc23)[nH]c1=O`, the displacement was -17%. With `O=C1c2ccccc2C(=O)N1CC(=O)N(Cc1ccccc1)c1cccc([N+](=O)[O-])c1` the displacement was -5.7%. `CCOc1ccc(/C(C)=N/NS(=O)(=O)c2ccccc2)cc1` gave a displacement of -2.5%. Work on `CCCN1C(=O)C(=Cc2nc3ccccc3c(=O)n2CC)c2cc(Br)ccc21` yielded a displacement of -3.2%. Work on `CCOC(=O)c1c(NC(=O)COc2ccccc2C)sc(C(=O)Nc2ccccc2F)c1C` yielded a displacement of -0.6%. With `O=c1[nH]c(NCCO)nc2sc3c(c12)CCCC3` the displacement was 3.3%. For `CCCCOc1ccc(NC(=O)CCSc2nccn2C)cc1`, the displacement was 13.6%. `Cc1ccc(C(C)C)c(OCCNC(=O)c2ccc(Cl)cc2Cl)c1` gave a displacement of 10.7%. For `COc1ccccc1NC(=O)c1c(NC(=O)c2cccc(F)c2)sc(-c2ccccc2)c1C`, the displacement was -7.2%. Work on `Cc1cc(=O)n(-c2cccc(C(F)(F)F)c2)n1C` yielded a displacement of -3%. `CC(=NCCN1CCOCC1)c1c(C(F)(F)F)[nH]n(-c2nc3ccccc3s2)c1=O` was tested, and the displacement was -8.1%. Compound `O=C(Nc1ccc([N+](=O)[O-])cc1)/C(=C\c1ccc(Br)cc1)NC(=O)c1ccco1` has a displacement of -1.7%. With `COc1ccc(Cl)cc1NC(=O)c1cc2c(C)nn(-c3ccccc3)c2s1` the displacement was -16.2%. For `CN(C)/C=C1\N=C(c2ccc(F)cc2)OC1=O`, the displacement was 7.7%. Work on `NC(N)=NS(=O)(=O)c1ccc(NC(=S)Nc2ccccc2)cc1` yielded a displacement of -6%.
